The densities may have been worked out from excess volumes.
Experiment: xn = mol fraction of the nth substance listed
Details: 81.5 kPa

Q: Which results are given for `CC(C)(N)CO` + CC(=O)[O-].CC[n+]1ccn(C)c1?
A: mass density (293.15 K, x1 = 0.2): 1080.9 kg/m3; mass density (293.15 K, x1 = 0.4): 1051.9 kg/m3; mass density (293.15 K, x1 = 0.6): 1017.4 kg/m3; mass density (293.15 K, x1 = 1): 934.3 kg/m3; mass density (303.15 K, x1 = 0.2): 1074.6 kg/m3; mass density (303.15 K, x1 = 0.4): 1045.4 kg/m3; mass density (303.15 K, x1 = 1): 925.9 kg/m3; mass density (313.15 K, x1 = 0.2): 1068.3 kg/m3; mass density (313.15 K, x1 = 0.4): 1038.9 kg/m3; mass density (313.15 K, x1 = 0.6): 1003.7 kg/m3; mass density (313.15 K, x1 = 0.8): 963.8 kg/m3; mass density (313.15 K, x1 = 1): 917.5 kg/m3; mass density (323.15 K, x1 = 0.2): 1062 kg/m3; mass density (323.15 K, x1 = 0.4): 1032.5 kg/m3; mass density (323.15 K, x1 = 0.8): 956.4 kg/m3; mass density (323.15 K, x1 = 1): 909.1 kg/m3; mass density (333.15 K, x1 = 0.2): 1055.8 kg/m3; mass density (333.15 K, x1 = 0.4): 1026.1 kg/m3; mass density (333.15 K, x1 = 0.6): 990.2 kg/m3; mass density (333.15 K, x1 = 1): 900.5 kg/m3; mass density (343.15 K, x1 = 0.2): 1049.5 kg/m3; mass density (343.15 K, x1 = 1): 891.8 kg/m3; mass density (353.15 K, x1 = 0.2): 1043.4 kg/m3; mass density (353.15 K, x1 = 0.4): 1013.4 kg/m3; mass density (353.15 K, x1 = 0.6): 976.9 kg/m3; mass density (353.15 K, x1 = 0.8): 934.3 kg/m3; mass density (353.15 K, x1 = 1): 883 kg/m3

Q: With `CN(CCO)CCO` + CC(=O)[O-].CC[n+]1ccn(C)c1 as the compound, how does the mass density (303.15 K, x1 = 1) read?
A: The mass density was 1032.4 kg/m3.

Q: What about the mass density (323.15 K, x1 = 1) of the same compound?
A: Its mass density is 1017.1 kg/m3.

Q: What about the mass density (333.15 K, x1 = 1) of the same compound?
A: The mass density was 1009.4 kg/m3.

Q: What about the mass density (343.15 K, x1 = 1) of the same compound?
A: The mass density was 1001.6 kg/m3.

Q: What about the mass density (353.15 K, x1 = 1) of the same compound?
A: The mass density was 993.7 kg/m3.

Q: Which mass density (293.15 K, x1 = 0.2) does the source give for `OCCNCCO` + CC(=O)[O-].CC[n+]1ccn(C)c1 here?
A: Its mass density is 1100.4 kg/m3.

Q: And the mass density (293.15 K, x1 = 0.4)?
A: The mass density was 1097.2 kg/m3.

Q: And the mass density (293.15 K, x1 = 0.6)?
A: Its mass density is 1094.6 kg/m3.

Q: And the mass density (293.15 K, x1 = 1)?
A: Its mass density is 1096.4 kg/m3.

Q: And the mass density (303.15 K, x1 = 0.4)?
A: Its mass density is 1091.1 kg/m3.

Q: And the mass density (303.15 K, x1 = 0.8)?
A: Its mass density is 1088.4 kg/m3.

Q: And the mass density (313.15 K, x1 = 0.4)?
A: Its mass density is 1085 kg/m3.

Q: What about the mass density (313.15 K, x1 = 0.6) of the same compound?
A: The mass density was 1082.5 kg/m3.

Q: What about the mass density (313.15 K, x1 = 0.8) of the same compound?
A: The mass density was 1082.2 kg/m3.

Q: And the mass density (313.15 K, x1 = 1)?
A: The mass density was 1083.5 kg/m3.

Q: What about the mass density (323.15 K, x1 = 0.2) of the same compound?
A: Its mass density is 1081.9 kg/m3.

Q: What about the mass density (323.15 K, x1 = 0.4) of the same compound?
A: Its mass density is 1079 kg/m3.

Q: What about the mass density (323.15 K, x1 = 0.6) of the same compound?
A: Its mass density is 1076.5 kg/m3.

Q: What about the mass density (323.15 K, x1 = 0.8) of the same compound?
A: Its mass density is 1076 kg/m3.

Q: And the mass density (323.15 K, x1 = 1)?
A: The mass density was 1076.9 kg/m3.

Q: And the mass density (333.15 K, x1 = 0.2)?
A: Its mass density is 1075.9 kg/m3.

Q: What about the mass density (333.15 K, x1 = 0.6) of the same compound?
A: The mass density was 1070.5 kg/m3.

Q: What about the mass density (333.15 K, x1 = 0.8) of the same compound?
A: The mass density was 1069.9 kg/m3.

Q: What about the mass density (333.15 K, x1 = 1) of the same compound?
A: The mass density was 1070.3 kg/m3.

Q: What about the mass density (343.15 K, x1 = 0.2) of the same compound?
A: Its mass density is 1070 kg/m3.

Q: And the mass density (343.15 K, x1 = 0.4)?
A: The mass density was 1067.1 kg/m3.

Q: What about the mass density (343.15 K, x1 = 0.6) of the same compound?
A: The mass density was 1064.5 kg/m3.

Q: And the mass density (343.15 K, x1 = 0.8)?
A: Its mass density is 1063.6 kg/m3.

Q: And the mass density (343.15 K, x1 = 1)?
A: The mass density was 1063.5 kg/m3.

Q: And the mass density (353.15 K, x1 = 0.2)?
A: Its mass density is 1064.1 kg/m3.

Q: And the mass density (353.15 K, x1 = 0.4)?
A: Its mass density is 1061.2 kg/m3.

Q: What about the mass density (353.15 K, x1 = 1) of the same compound?
A: The mass density was 1056.6 kg/m3.

Q: For `CC(=O)[O-].CC[n+]1ccn(C)c1` + CC(C)(N)CO, which mass density (293.15 K, x2 = 0) is on record?
A: The mass density was 1102.8 kg/m3.

Q: And the mass density (303.15 K, x2 = 0)?
A: Its mass density is 1096.6 kg/m3.

Q: And the mass density (313.15 K, x2 = 0)?
A: Its mass density is 1090.5 kg/m3.

Q: And the mass density (323.15 K, x2 = 0)?
A: Its mass density is 1084.4 kg/m3.

Q: And the mass density (333.15 K, x2 = 0)?
A: Its mass density is 1078.4 kg/m3.

Q: And the mass density (343.15 K, x2 = 0)?
A: The mass density was 1072.4 kg/m3.

Q: What about the mass density (353.15 K, x2 = 0) of the same compound?
A: Its mass density is 1066.5 kg/m3.

Q: Which mass density (293.15 K, x2 = 0) does the source give for `CC(=O)[O-].CC[n+]1ccn(C)c1` + CN(CCO)CCO here?
A: Its mass density is 1102.8 kg/m3.

Q: And the mass density (293.15 K, x2 = 0.2)?
A: Its mass density is 1092.2 kg/m3.

Q: What about the mass density (293.15 K, x2 = 0.6) of the same compound?
A: The mass density was 1067.7 kg/m3.

Q: What about the mass density (293.15 K, x2 = 0.8) of the same compound?
A: The mass density was 1054.8 kg/m3.

Q: And the mass density (303.15 K, x2 = 0)?
A: Its mass density is 1096.6 kg/m3.

Q: And the mass density (303.15 K, x2 = 0.2)?
A: Its mass density is 1086.1 kg/m3.

Q: What about the mass density (303.15 K, x2 = 0.4) of the same compound?
A: The mass density was 1074.4 kg/m3.

Q: And the mass density (303.15 K, x2 = 0.6)?
A: Its mass density is 1061.4 kg/m3.

Q: And the mass density (303.15 K, x2 = 0.8)?
A: The mass density was 1048.1 kg/m3.

Q: And the mass density (313.15 K, x2 = 0)?
A: Its mass density is 1090.5 kg/m3.

Q: What about the mass density (313.15 K, x2 = 0.2) of the same compound?
A: The mass density was 1079.9 kg/m3.

Q: What about the mass density (313.15 K, x2 = 0.4) of the same compound?
A: The mass density was 1068.2 kg/m3.

Q: What about the mass density (313.15 K, x2 = 0.6) of the same compound?
A: The mass density was 1055.2 kg/m3.

Q: What about the mass density (313.15 K, x2 = 0.8) of the same compound?
A: The mass density was 1041.4 kg/m3.

Q: And the mass density (323.15 K, x2 = 0)?
A: Its mass density is 1084.4 kg/m3.

Q: And the mass density (323.15 K, x2 = 0.2)?
A: The mass density was 1073.9 kg/m3.

Q: And the mass density (323.15 K, x2 = 0.6)?
A: The mass density was 1048.9 kg/m3.

Q: What about the mass density (323.15 K, x2 = 0.8) of the same compound?
A: The mass density was 1034.8 kg/m3.

Q: What about the mass density (333.15 K, x2 = 0.2) of the same compound?
A: Its mass density is 1067.9 kg/m3.

Q: And the mass density (333.15 K, x2 = 0.4)?
A: The mass density was 1056.1 kg/m3.

Q: And the mass density (333.15 K, x2 = 0.6)?
A: The mass density was 1042.8 kg/m3.

Q: And the mass density (333.15 K, x2 = 0.8)?
A: Its mass density is 1028.2 kg/m3.

Q: What about the mass density (343.15 K, x2 = 0) of the same compound?
A: The mass density was 1072.4 kg/m3.

Q: And the mass density (343.15 K, x2 = 0.2)?
A: The mass density was 1061.9 kg/m3.

Q: And the mass density (343.15 K, x2 = 0.4)?
A: Its mass density is 1050.1 kg/m3.

Q: What about the mass density (343.15 K, x2 = 0.6) of the same compound?
A: Its mass density is 1036.6 kg/m3.

Q: And the mass density (343.15 K, x2 = 0.8)?
A: Its mass density is 1021.5 kg/m3.

Q: What about the mass density (353.15 K, x2 = 0.2) of the same compound?
A: Its mass density is 1056 kg/m3.

Q: And the mass density (353.15 K, x2 = 0.4)?
A: Its mass density is 1044.2 kg/m3.

Q: And the mass density (353.15 K, x2 = 0.6)?
A: The mass density was 1030.5 kg/m3.

Q: With `CC(=O)[O-].CC[n+]1ccn(C)c1` + OCCNCCO as the compound, how does the mass density (323.15 K, x2 = 0) read?
A: Its mass density is 1084.4 kg/m3.

Q: And the mass density (343.15 K, x2 = 0)?
A: The mass density was 1072.4 kg/m3.

Q: And the mass density (353.15 K, x2 = 0)?
A: Its mass density is 1066.5 kg/m3.
